The supplement of paper PMC4967469

Columns and labels:
Assay in all cases: Viability of human cancer cell lines after 72 h of drug (GDSC screen)
STF-62247 = compound: Cc1cccc(Nc2nc(-c3ccncc3)cs2)c1 [STF-62247]; details: top dose 10.24 µM; top dose inferred
Protocol: (§1)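 Human cancer cell lines in 384-well plates, medium with 10% serum, drug for 72 h over a 256-fold dose range (nine 2-fold or five 4-fold steps up to the top dose). Adherent lines were fixed and stained with the nucleic acid dye Syto60, suspension lines read with resazurin; signal relative to control wells, capped at 0 and 100%. One two-parameter sigmoid per drug and line, fitted in a mixed model over all curves with the slope shared within a line.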

CX-5461 = compound: Cc1cnc(CNC(=O)c2c(=O)c3ccc(N4CCCN(C)CC4)nc3n3c2sc2ccccc23)cn1 [CX-5461]; details: top dose 10.24 µM; top dose inferred
Protocol: as §1

CP724714 = compound: COCC(=O)NC/C=C/c1ccc2ncnc(Nc3ccc(Oc4ccc(C)nc4)c(C)c3)c2c1 [CP724714]; details: top dose 10.24 µM; top dose inferred
Protocol: as §1

Obatoclax mesylate = compound: COC1=CC(c2cc3ccccc3[nH]2)=N/C1=C\c1[nH]c(C)cc1C [Obatoclax mesylate]; details: top dose 16 µM
Protocol: as §1

| Cell Line | AUC (STF-62247) | IC50 (STF-62247) [µM] | AUC (CX-5461) | IC50 (CX-5461) [µM] | AUC (CP724714) | IC50 (CP724714) [µM] | AUC (Obatoclax mesylate) | IC50 (Obatoclax mesylate) [µM] |
| --- | --- | --- | --- | --- | --- | --- | --- | --- |
| OV-17R (ovary, adherent) | 0.943 | > 10.2 | 0.967 | > 10.2 | 0.88 | > 10.2 | – | – |
| OV-56 (ovary, adherent) | 0.979 | > 10.2 | 0.823 | 5.7 | 0.987 | > 10.2 | – | – |
| OVCA420 (ovary, adherent) | 0.963 | > 10.2 | 0.97 | > 10.2 | 0.968 | > 10.2 | – | – |
| OVCA433 (ovary, adherent) | 0.981 | > 10.2 | 0.964 | > 10.2 | 0.974 | > 10.2 | – | – |
| OVK-18 (ovary, adherent) | 0.932 | > 10.2 | 0.684 | 2.22 | 0.986 | > 10.2 | – | – |
| PEO1 (ovary, adherent) | 0.942 | > 10.2 | 0.981 | > 10.2 | 0.982 | > 10.2 | – | – |
| QGP-1 (pancreas, adherent) | 0.979 | > 10.2 | 0.861 | > 10.2 | 0.97 | > 10.2 | – | – |
| RCC-AB (kidney, adherent) | 0.838 | 10.2 | 0.753 | 4.37 | 0.768 | 5.02 | – | – |
| RCC-ER (kidney, adherent) | 0.937 | > 10.2 | 0.986 | > 10.2 | 0.979 | > 10.2 | – | – |
| RCC-FG2 (kidney, adherent) | 0.745 | 3.99 | 0.982 | > 10.2 | 0.979 | > 10.2 | – | – |
| RCC-JF (kidney, adherent) | 0.918 | > 10.2 | 0.809 | 6.16 | 0.945 | > 10.2 | – | – |
| RCC-JW (kidney, adherent) | 0.96 | > 10.2 | 0.982 | > 10.2 | 0.933 | > 10.2 | – | – |
| RCC-MF (kidney, adherent) | 0.79 | 6.14 | 0.953 | > 10.2 | 0.932 | > 10.2 | – | – |
| RERF-GC-1B (stomach, adherent) | 0.981 | > 10.2 | 0.85 | 9.19 | 0.931 | > 10.2 | – | – |
| SCC90 (head and neck, adherent) | – | – | – | – | – | – | 0.454 | 0.711 |
| SK-GT-4 (oesophagus, adherent) | 0.979 | > 10.2 | 0.906 | > 10.2 | 0.974 | > 10.2 | – | – |

| Cell Line | AUC (STF-62247) | IC50 (STF-62247) [µM] | AUC (CX-5461) | IC50 (CX-5461) [µM] | AUC (CP724714) | IC50 (CP724714) [µM] | AUC (Obatoclax mesylate) | IC50 (Obatoclax mesylate) [µM] |
| --- | --- | --- | --- | --- | --- | --- | --- | --- |
| SK-MEL-5 (melanoma, adherent) | 0.978 | > 10.2 | 0.983 | > 10.2 | 0.972 | > 10.2 | – | – |
| SK-MG-1 (glioma, adherent) | 0.984 | > 10.2 | 0.934 | > 10.2 | 0.944 | > 10.2 | – | – |
| SNU-61 (large intestine, adherent) | 0.983 | > 10.2 | 0.918 | > 10.2 | 0.922 | > 10.2 | – | – |
| SNU-81 (large intestine, adherent) | 0.978 | > 10.2 | 0.786 | 6.13 | 0.948 | > 10.2 | – | – |
| SNU-175 (large intestine, suspension) | 0.987 | > 10.2 | 0.963 | > 10.2 | 0.873 | 8.82 | – | – |
| SNU-407 (large intestine, adherent) | 0.916 | > 10.2 | 0.789 | 5.38 | 0.922 | > 10.2 | – | – |
| SNU-1040 (large intestine, adherent) | 0.967 | > 10.2 | 0.822 | 8.92 | 0.909 | > 10.2 | – | – |
| SNU-C5 (large intestine, adherent) | 0.981 | > 10.2 | 0.964 | > 10.2 | 0.974 | > 10.2 | – | – |
| STS-0421 (soft tissue, adherent) | – | – | – | – | – | – | 0.298 | 0.243 |
| SU-DHL-10 (B-cell lymphoma, suspension) | 0.964 | > 10.2 | 0.974 | > 10.2 | 0.998 | > 10.2 | – | – |
| SW1116 (large intestine, adherent) | 0.985 | > 10.2 | 0.986 | > 10.2 | 0.985 | > 10.2 | – | – |
| TE-4 (oesophagus, adherent) | 0.98 | > 10.2 | 0.987 | > 10.2 | 0.53 | 0.773 | – | – |
| THP-1 (acute myeloid leukaemia, suspension) | 0.863 | 7.43 | – | – | 0.876 | 8.4 | 0.138 | 0.0869 |
| UWB1.289 (ovary, adherent) | 0.949 | > 10.2 | 0.978 | > 10.2 | 0.97 | > 10.2 | – | – |
| YH-13 (glioma, adherent) | 0.986 | > 10.2 | 0.986 | > 10.2 | 0.986 | > 10.2 | – | – |
| YMB-1-E (breast, adherent) | 0.976 | > 10.2 | 0.971 | > 10.2 | 0.962 | > 10.2 | – | – |

The IC50 comes from the fitted curve, where viability falls to half of the control; where the fit passes the top or lowest dose, that dose stands as a limit. For AUC the same curve is integrated over the 256-fold range of doses and scaled to a fraction; values near 1 show little effect. For some of these results: Where the top dose is marked as inferred, it is not printed in the source and was worked back from the curve model.
